The supplement of paper PMC4967469
The IC50 comes from the fitted curve, where viability falls to half of the control; where the fit passes the top or lowest dose, that dose stands as a limit. The AUC spans the tested range (256-fold, ending at the top dose) of the same fit; the more sensitive the line, the further below 1. For part of these data: A top dose marked as inferred was derived from the fitted curves, not read from the paper. For part of these data: Drugs with an entry number were screened twice under separate entries, and the two screens often disagree.

Columns and labels:
Assay in all cases: Viability of human cancer cell lines after 72 h of drug (GDSC screen)
JNJ-26854165 = compound: c1ccc2c(CCNc3ccc(Nc4ccncc4)cc3)c[nH]c2c1 [JNJ-26854165]; conditions: top dose 10 µM
Method: (§1)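 Human cancer cell lines in 384-well plates, medium with 10% serum, drug for 72 h over a 256-fold dose range (nine 2-fold or five 4-fold steps up to the top dose). Adherent lines were fixed and stained with the nucleic acid dye Syto60, suspension lines read with resazurin; signal relative to control wells, capped at 0 and 100%. One two-parameter sigmoid per drug and line, fitted in a mixed model over all curves with the slope shared within a line.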

PHA-665752 = compound: Cc1[nH]c(/C=C2\C(=O)Nc3ccc(S(=O)(=O)Cc4c(Cl)cccc4Cl)cc32)c(C)c1C(=O)N1CCC[C@@H]1CN1CCCC1 [PHA-665752]; conditions: top dose 2 µM
Method: as §1

JQ1 = compound: Cc1sc2c(c1C)C(c1ccc(Cl)cc1)=N[C@@H](CC(=O)OC(C)(C)C)c1nnc(C)n1-2 [JQ1]
Method: as §1

AMG-706 = compound: CC1(C)CNc2cc(NC(=O)c3cccnc3NCc3ccncc3)ccc21 [AMG-706]; conditions: top dose 2 µM; top dose inferred
Method: as §1

YM155 = compound: COCC[n+]1c2c(n(Cc3cnccn3)c1C)C(=O)c1ccccc1C2=O [YM155]; conditions: top dose 5.12 µM
Method: as §1

Belinostat = compound: O=C(/C=C/c1cccc(S(=O)(=O)Nc2ccccc2)c1)NO [Belinostat]; conditions: top dose 20 µM; top dose inferred
Method: as §1

NSC-207895 = compound: CN1CCN(c2ccc([N+](=O)[O-])c3no[n+]([O-])c23)CC1 [NSC-207895]; conditions: top dose 20 µM; top dose inferred
Method: as §1

Docetaxel = compound: CC(=O)O[C@@]12CO[C@@H]1C[C@H](O)[C@@]1(C)C(=O)[C@H](O)C3=C(C)[C@@H](OC(=O)[C@H](O)[C@@H](NC(=O)OC(C)(C)C)c4ccccc4)C[C@@](O)([C@@H](OC(=O)c4ccccc4)[C@H]21)C3(C)C [Docetaxel]; conditions: top dose 0.0125 µM
Method: as §1

CGP-60474 = compound: OCCCNc1cc(-c2ccnc(Nc3cccc(Cl)c3)n2)ccn1 [CGP-60474]; conditions: top dose 0.256 µM; top dose inferred
Method: as §1

JNK Inhibitor VIII = compound: CCOc1nc(NC(=O)Cc2cc(OC)ccc2OC)cc(N)c1C#N [JNK Inhibitor VIII]; conditions: top dose 10 µM; top dose inferred
Method: as §1

NVP-TAE684 = compound: COc1cc(N2CCC(N3CCN(C)CC3)CC2)ccc1Nc1ncc(Cl)c(Nc2ccccc2S(=O)(=O)C(C)C)n1 [NVP-TAE684]; conditions: top dose 2 µM
Method: as §1

SB-715992 = compound: Cc1ccc(C(=O)N(CCCN)[C@@H](c2nc3cc(Cl)ccc3c(=O)n2Cc2ccccc2)C(C)C)cc1 [SB-715992]; conditions: top dose 0.128 µM; top dose inferred
Method: as §1

FTI-277 = compound: COC(=O)[C@H](CCSC)NC(=O)c1ccc(NC[C@@H](N)CS)cc1-c1ccccc1 [FTI-277]; conditions: top dose 1.024 µM; top dose inferred
Method: as §1

OSI-906 = compound: C[C@]1(O)C[C@@H](c2nc(-c3ccc4ccc(-c5ccccc5)nc4c3)c3c(N)nccn32)C1 [OSI-906]; conditions: top dose 2.56 µM; top dose inferred
Method: as §1

Cyclopamine = compound: CC1=C2C[C@H]3[C@@H](CC=C4C[C@@H](O)CC[C@@]43C)[C@@H]2CC[C@]12O[C@@H]1C[C@H](C)CN[C@H]1[C@H]2C [Cyclopamine]; conditions: top dose 16 µM; top dose inferred
Method: as §1

[1] = top dose 2.56 µM, screen: GDSC drug entry 163
[2] = top dose 1 µM, screen: GDSC drug entry 1218, top dose inferred

Cell Line	AUC (JNJ-26854165)	IC50 (JNJ-26854165) [nM]	AUC (PHA-665752)	IC50 (PHA-665752) [nM]	AUC (JQ1; [1])	IC50 (JQ1; [1]) [nM]	AUC (AMG-706)	IC50 (AMG-706) [nM]	AUC (YM155)	IC50 (YM155) [nM]	AUC (Belinostat)	IC50 (Belinostat) [nM]	AUC (NSC-207895)	IC50 (NSC-207895) [nM]	AUC (Docetaxel)	IC50 (Docetaxel) [nM]	AUC (CGP-60474)	IC50 (CGP-60474) [nM]	AUC (JNK Inhibitor VIII)	IC50 (JNK Inhibitor VIII) [nM]	AUC (NVP-TAE684)	IC50 (NVP-TAE684) [nM]	AUC (SB-715992)	IC50 (SB-715992) [nM]	AUC (FTI-277)	IC50 (FTI-277) [nM]	AUC (OSI-906)	IC50 (OSI-906) [nM]	AUC (Cyclopamine)	IC50 (Cyclopamine) [nM]	AUC (JQ1; [2])	IC50 (JQ1; [2]) [nM]
BB30-HNC (head and neck, adherent)	0.808	5030	0.98	> 2000	0.378	74.6	0.986	> 2000	0.055	< 20	0.507	1310	0.922	> 20000	0.505	0.805	0.644	39.6	0.966	> 10000	0.765	715	0.663	22.5	0.944	> 1020	0.92	> 2560	0.92	> 16000	–	–
OCI-AML5 (acute myeloid leukaemia, suspension)	0.972	> 10000	0.956	> 2000	0.68	484	0.987	> 2000	0.241	62.3	0.152	121	0.889	19400	0.884	11.5	0.782	97.1	0.989	> 10000	0.614	249	0.607	15.3	0.988	> 1020	0.58	259	0.979	> 16000	0.986	> 1000
KS-1 (glioma, adherent)	0.89	> 10000	0.928	> 2000	0.546	220	0.962	> 2000	0.036	< 20	0.498	1240	0.927	> 20000	0.626	1.9	0.538	20.9	0.976	> 10000	0.574	209	0.826	104	0.932	> 1020	0.328	46.6	0.888	> 16000	0.968	> 1000
NOS-1 (osteosarcoma, adherent)	0.803	6370	0.884	> 2000	0.5	160	0.914	> 2000	0.073	< 20	0.312	328	0.9	> 20000	0.85	> 12.5	0.514	17.6	0.976	> 10000	0.463	96.6	0.691	31.4	0.964	> 1020	0.661	501	0.909	> 16000	0.977	> 1000
